Data from PMC6919601, “Identification of Plasmodium dipeptidyl aminopeptidase allosteric inhibitors by high throughput screening” (PLoS ONE, 2019).
About 230 (0.21%) of roughly 110,000 compounds showed an effect of 50% or more. Some of the results follow.

These compounds were tested against DPAP1 (Plasmodium falciparum, UniProt Q8IIJ9) (assay: primary screen, percent inhibition; read by cleavage of a fluorogenic dipeptide substrate; higher = more effect of the substance).
Design: species or system P. falciparum D10 trophozoite lysates; single well
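Note: 30 min substrate incubation versus DMSO and 10 µM JCP410 controls.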

Sequence of DPAP1 (Q8IIJ9 whole entry, looked up): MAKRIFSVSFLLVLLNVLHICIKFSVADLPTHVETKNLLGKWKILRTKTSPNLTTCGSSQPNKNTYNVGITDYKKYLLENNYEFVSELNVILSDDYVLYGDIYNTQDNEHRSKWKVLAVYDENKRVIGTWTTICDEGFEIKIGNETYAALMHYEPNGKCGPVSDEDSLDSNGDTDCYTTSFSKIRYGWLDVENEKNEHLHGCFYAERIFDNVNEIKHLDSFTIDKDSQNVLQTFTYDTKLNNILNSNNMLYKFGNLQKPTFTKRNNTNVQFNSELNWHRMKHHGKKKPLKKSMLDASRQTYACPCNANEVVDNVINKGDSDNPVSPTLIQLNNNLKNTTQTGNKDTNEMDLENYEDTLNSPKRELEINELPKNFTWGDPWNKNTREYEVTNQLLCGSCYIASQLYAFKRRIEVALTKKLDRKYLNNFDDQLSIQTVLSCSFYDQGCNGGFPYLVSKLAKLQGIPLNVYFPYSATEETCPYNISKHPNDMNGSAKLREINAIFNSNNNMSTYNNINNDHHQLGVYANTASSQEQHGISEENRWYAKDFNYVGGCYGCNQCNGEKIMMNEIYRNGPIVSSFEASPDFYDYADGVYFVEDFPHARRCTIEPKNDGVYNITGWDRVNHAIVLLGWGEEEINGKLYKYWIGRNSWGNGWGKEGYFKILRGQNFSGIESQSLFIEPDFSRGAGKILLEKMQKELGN

SMILES | % Inhibition @ 10 uM [%]
Cc1ccccc1-c1nc(CSCC(=O)NCc2cccs2)c(C)o1 | -4.71
COc1ccccc1-c1nnc(C2CCN(S(=O)(=O)c3c(F)c(F)c(F)c(F)c3F)CC2)o1 | 11.3
C(=C\c1nc2sc(/C=C/c3ccccc3)nc2s1)/c1ccccc1 | -0.268
CCn1c(C(=O)O)c(CNCCc2cc(OC)ccc2OC)c2ccc(C)cc21 | 6.66
CCOC(=O)N1CCN(c2nc(C)cc(C(F)(F)F)n2)CC1 | -9.05
O=C(NCc1cccc(CNC(=O)c2cccc(F)c2)c1)c1cccc(F)c1 | 0.389
COc1cc(C(CC(=O)NC(C)C)N2Cc3ccccc3C2=O)cc(OC)c1OC (stereo not shown) | -3.29
CC1=C(C)CC(CN2C(=O)CCCC2=O)CC1 (stereo not shown) | -4.31
CCCCOc1ccc(OCCNC(=O)c2ccco2)cc1 | 0.503
CCC(Sc1nc2c(cc1C#N)CCCCC2)C(=O)Nc1cc(C)on1 (stereo not shown) | 0.275
CNC(=O)c1ccc(CNS(=O)(=O)c2ccc(C)cc2)cc1 | 0.718
CCOC(=O)c1c2c(n3ccccc13)C(=O)c1ccccc1C2=O | 12
CC(C)(C)c1ccc(C(=O)NC2(C(F)(F)F)NC(=O)N(Cc3ccccc3)C2=O)cc1 (stereo not shown) | 1.91
Cc1ccc(S(=O)(=O)N(C)Cc2nc(-c3cccc(C)c3)no2)cc1 | 0.907
O=C(NCC1COc2ccccc2O1)c1ccc(Cl)cc1 (stereo not shown) | -1.38
CCOc1ccc2nc(NC(=O)Cn3cc(S(=O)(=O)NC)c(S(=O)(=O)NC)c3)sc2c1 | 5.36
O=C1c2ccccc2C(=O)N1CCCON1C(=O)c2ccccc2C1=O | -0.941
Cc1cc(-c2ccc(S(=O)(=O)NCc3ccc(F)cc3)cc2)on1 | 5.87
CC1(C)CC(=O)C2=C(C1)c1c(ccc3ccccc13)NC2c1cc2c(cc1Br)OCO2 (stereo not shown) | 1.29
CCCN(CCO)Cc1cccc(Cl)c1 | -6
Cc1ccc(C2NC(=S)NC(c3ccc(C)cc3)C23C(=O)NC(=O)NC3=O)cc1 (stereo not shown) | -1.29
COCCNC(=O)c1ccc2c(c1)nc(C)n2-c1cccc(C)c1 | 3.04
N#CCC(=O)NCC1OCCc2ccccc21 (stereo not shown) | -0.736
COc1cccc(C(=O)N2CCN(c3ncccn3)CC2)c1 | 3.94
CC1=[N+]([O-])C2(CCCCC2)[N+]([O-])=C1c1ccccc1 | 1.63
OCC1CCCCN1Cc1ccc(F)c(Br)c1 (stereo not shown) | -5.11
CCN(CC)C(=O)C1CCCN(Cc2c(Cl)cccc2Cl)C1 (stereo not shown) | -1.41
Cc1ccc(S(=O)(=O)N(CC(=O)N(C)C)c2ccc(Br)cc2)cc1 | 0.793
